Measurements taken from PubChem BioAssay AID262 (DTP/NCI, 2004).
Certain results were filed several times, with different values. Only these are listed. An entry can have further records. Results that share an entry are repeats in other runs, samples, wells, individuals or studies.

System: LX-1 lung xenograft sc, nude mice, tumor weight
Assay: NCI In Vivo Anticancer Drug Screen. Data for tumor model Human Lung LX-1 Xenograft (subcutaneous) in NU/NU Swiss (nude) mice
Settings: endpoint: optimum tumor weight change, higher = larger tumour
Protocol: The antitumor activity of compounds was measured in mice bearing transplantable tumors. Survival or tumor size were measured and the results are expressed as the measurement made in the treated group (T) divided by the measurement made in the vehicle treated control group (C). The tumor model used in this assay is Human Lung LX-1 Xenograft (subcutaneous) in NU/NU Swiss (nude) mice

CN(C)N=Nc1ccccc1
T/C (dose: 50.0 mg/kg/injection, schedule: Q04DX003 (ip), vehicle: Klucel (hydroxypropylcellulose) (HPC)): -21 % of control and 10 % of control

CN(C)c1nc(N(C)C)nc(N(C)C)n1
T/C (dose: 60.0 mg/kg/injection, schedule: Q04DX005 (ip), vehicle: Klucel (hydroxypropylcellulose) (HPC)): 65 % of control and 102 % of control | T/C (dose: 120.0 mg/kg/injection, schedule: Q04DX005 (ip), vehicle: Klucel (hydroxypropylcellulose) (HPC)): 42 % of control and 81 % of control

CN(CO)c1nc(N(C)CO)nc(N(C)CO)n1
T/C (dose: 25.0 mg/kg/injection, schedule: Q07DX005 (ip), vehicle: saline): 13 % of control and 62 % of control

O=C1c2c(O)ccc(O)c2C(=O)c2c(NCCNCCO)ccc(NCCNCCO)c21
T/C (dose: 0.63 mg/kg/injection, schedule: Q04DX003 (ip), vehicle: water): 55 % of control, 81 % of control, 107 % of control | T/C (dose: 1.25 mg/kg/injection, schedule: Q04DX003 (ip), vehicle: water): 77 % of control and 109 % of control

CC(C)CCCCCCCCCCCCC(=O)NCC(=O)NC1C(O)C(O)C(Nc2ncnc3nc[nH]c23)OC1C(O)CO (centres undefined)
T/C (dose: 6.0 mg/kg/injection, schedule: Q04DX003 (ip), vehicle: suspension in saline): 18 % of control and 77 % of control

N[C@@H](Cc1ccc(N(CCCl)CCCl)cc1)C(=O)O
T/C (dose: 2.0 mg/kg/injection, schedule: Q04DX003 (ip), vehicle: suspension in saline): 112 % of control and 183 % of control

CNC=O
T/C (dose: 1600.0 mg/kg/injection, schedule: Q04DX003 (ip), vehicle: saline): 2 % of control and 28 % of control
